Results reported in publication PMC4336329 (PLoS ONE, 2015).
The whole screen tested about 310,000 compounds, of which about 2,200 (0.71%) showed an effect of 50% or more. The effect is printed as a negative number. The list shows a part of the results.

The molecules below were run against human ether-à-go-go-related gene (hERG) potassium channel (human, UniProt Q12809) (assay: primary screen, population patch clamp on CHO cells stably expressing hERG).
Chain of human ether-à-go-go-related gene (hERG) potassium channel (Q12809 whole entry, looked up): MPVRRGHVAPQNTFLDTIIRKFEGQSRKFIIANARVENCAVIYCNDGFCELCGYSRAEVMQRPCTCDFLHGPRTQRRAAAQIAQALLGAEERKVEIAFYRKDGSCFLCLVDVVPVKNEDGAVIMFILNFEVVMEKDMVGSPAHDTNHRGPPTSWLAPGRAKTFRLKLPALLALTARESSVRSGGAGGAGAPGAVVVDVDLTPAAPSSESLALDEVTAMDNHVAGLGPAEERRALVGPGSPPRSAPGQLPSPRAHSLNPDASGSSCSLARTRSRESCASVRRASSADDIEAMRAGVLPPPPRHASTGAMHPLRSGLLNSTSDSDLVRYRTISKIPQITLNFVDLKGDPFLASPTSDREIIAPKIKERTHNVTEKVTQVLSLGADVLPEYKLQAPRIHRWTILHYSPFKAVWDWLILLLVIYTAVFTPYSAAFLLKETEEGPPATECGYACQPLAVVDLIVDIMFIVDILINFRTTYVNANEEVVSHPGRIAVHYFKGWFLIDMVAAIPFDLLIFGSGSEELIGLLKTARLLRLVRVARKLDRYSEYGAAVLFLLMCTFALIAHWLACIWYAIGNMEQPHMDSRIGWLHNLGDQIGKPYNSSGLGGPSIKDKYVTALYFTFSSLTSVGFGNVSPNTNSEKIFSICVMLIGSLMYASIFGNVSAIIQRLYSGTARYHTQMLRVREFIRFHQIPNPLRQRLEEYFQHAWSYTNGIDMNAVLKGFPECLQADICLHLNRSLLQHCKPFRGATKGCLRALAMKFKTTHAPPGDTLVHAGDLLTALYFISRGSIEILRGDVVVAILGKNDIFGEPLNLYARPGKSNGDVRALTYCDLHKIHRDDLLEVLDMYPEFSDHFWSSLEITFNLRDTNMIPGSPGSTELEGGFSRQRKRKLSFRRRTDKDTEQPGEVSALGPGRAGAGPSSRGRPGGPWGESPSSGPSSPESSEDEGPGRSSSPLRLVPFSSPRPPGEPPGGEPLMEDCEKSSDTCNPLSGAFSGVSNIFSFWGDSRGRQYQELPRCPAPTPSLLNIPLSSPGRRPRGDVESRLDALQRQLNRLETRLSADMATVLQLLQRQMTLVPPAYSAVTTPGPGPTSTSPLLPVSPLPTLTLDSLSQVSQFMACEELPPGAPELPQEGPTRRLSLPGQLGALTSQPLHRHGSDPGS

CCCCNC(=O)c1ccccc1NC(=O)c1ccccc1N(C)S(C)(=O)=O was tested. Which “hERG current change (%, negative = inhibition) at 1uM” value did it give?
The value was 13.1%.

Which “hERG current change (%, negative = inhibition) at 1uM” value does the source give for N#CCCN1CCNCC1 here?
The value was 11.7%.

With COc1cccc(OCC(Cn2cnc3ccccc32)OC(C)=O)c1 (stereo not shown) as the molecule, how does the “hERG current change (%, negative = inhibition) at 1uM” value read?
The value was -8.19%.

With CS(=O)(=O)N1CCc2cc(C(=O)Nc3ccccc3Br)ccc21 as the molecule, how does the “hERG current change (%, negative = inhibition) at 1uM” value read?
Its value is 11.5%.

Which “hERG current change (%, negative = inhibition) at 1uM” value does the source give for CCC1CCCCN1Cc1cc(OC)c(O)c([N+](=O)[O-])c1 (stereo not shown) here?
Its value is 11.7%.

CCN(CC)S(=O)(=O)c1cccc(C(=O)Nc2ccccc2)c1 was tested. Which “hERG current change (%, negative = inhibition) at 1uM” value did it give?
Its value is -0.175%.

COc1sc(SC)cc1/C=N/NC(=O)c1ccncc1 was tested. Which “hERG current change (%, negative = inhibition) at 1uM” value did it give?
The value was 18.9%.

Which “hERG current change (%, negative = inhibition) at 1uM” value does the source give for OC(Cn1c2ccccc2c2ccccc21)C[n+]1ccccc1.[O-][Cl+3]([O-])([O-])[O-] (stereo not shown) here?
The value was 5.52%.

c1cncc(CSc2nnc3ccc(-c4cccs4)nn23)c1 was tested. Which “hERG current change (%, negative = inhibition) at 1uM” value did it give?
The value was 0.906%.

For COc1ccc(CNC(=O)CCC(=O)N2CCN(S(=O)(=O)c3ccc(Cl)cc3)CC2)cc1, which “hERG current change (%, negative = inhibition) at 1uM” value is on record?
Its value is 12.9%.

For Brc1c(-c2ccccc2)nc2n1Cc1ccccc1-2, which “hERG current change (%, negative = inhibition) at 1uM” value is on record?
The value was 17.5%.

Which “hERG current change (%, negative = inhibition) at 1uM” value does the source give for Cc1ccc(N2C(=O)NC(=O)/C(=C/c3cnn(-c4ccc(C)cc4)c3)C2=O)cc1 here?
Its value is 16.3%.

How did the “hERG current change (%, negative = inhibition) at 1uM” value turn out when CCOc1cc(/C=N/NC(=O)c2ccccc2-n2cccc2)ccc1O was run?
Its value is 3.65%.

For CCS(=O)(=O)N1CCCC(C(=O)NCCCN2CCCC2=O)C1 (stereo not shown), which “hERG current change (%, negative = inhibition) at 1uM” value is on record?
Its value is 9.12%.

Cc1ccc(S(=O)(=O)c2cc3ccccc3nc2N)cc1 was tested. Which “hERG current change (%, negative = inhibition) at 1uM” value did it give?
The value was 13.5%.

With CCc1nccn1CCC(=O)NC1CCCc2c1cnn2-c1ccc(F)cc1F (stereo not shown) as the molecule, how does the “hERG current change (%, negative = inhibition) at 1uM” value read?
The value was 16%.

How did the “hERG current change (%, negative = inhibition) at 1uM” value turn out when Cc1cc(-c2nnc(CCC(=O)NC(c3ccccc3)c3ccccc3)o2)no1 was run?
The value was 20.9%.

For CC(OC(=O)CCN=C1NS(=O)(=O)c2ccccc21)C(=O)Nc1ccc(S(N)(=O)=O)cc1 (stereo not shown), which “hERG current change (%, negative = inhibition) at 1uM” value is on record?
Its value is 9.22%.

Which “hERG current change (%, negative = inhibition) at 1uM” value does the source give for O=C(O)C(=O)O.O=[N+]([O-])c1ccc(OCCN2CCNCC2)cc1 here?
The value was -52.2%.

For O=C(CSc1ncccn1)NC1CCCc2ccccc21 (stereo not shown), which “hERG current change (%, negative = inhibition) at 1uM” value is on record?
Its value is -4.43%.

Which “hERG current change (%, negative = inhibition) at 1uM” value does the source give for CN1CCc2c(sc(NC(=O)c3ccco3)c2C(N)=O)C1.Cl here?
Its value is 0.183%.

With Cc1ccn2cc(-c3ccc4c(c3)NC(=O)CO4)nc2c1.Cl as the molecule, how does the “hERG current change (%, negative = inhibition) at 1uM” value read?
The value was 9.06%.

For Cc1ccc(NC(=O)CCCc2ccccc2)nc1, which “hERG current change (%, negative = inhibition) at 1uM” value is on record?
Its value is 5.65%.

O=C(CSc1cccc[n+]1[O-])c1ccccc1Br was tested. Which “hERG current change (%, negative = inhibition) at 1uM” value did it give?
The value was 12%.

How did the “hERG current change (%, negative = inhibition) at 1uM” value turn out when CCCC(CCC(=O)Nc1ccc(C(=O)OCC)cc1)C(=O)O (stereo not shown) was run?
Its value is 12%.

Which “hERG current change (%, negative = inhibition) at 1uM” value does the source give for O=S(=O)(Nc1ccccn1)c1cc(Cl)ccc1Cl here?
The value was 7.72%.

O=C(NCC(c1ccco1)N1CCCC1)c1cccc(NS(=O)(=O)c2ccc(Br)cc2)c1 (stereo not shown) was tested. Which “hERG current change (%, negative = inhibition) at 1uM” value did it give?
Its value is -2.58%.

For CCOC(=O)N1CCC(NC(=O)COc2cc(=O)n(C)c3ccccc23)CC1, which “hERG current change (%, negative = inhibition) at 1uM” value is on record?
The value was 13%.

With COc1ccccc1-n1c(SCC(=O)Nc2ccccc2F)nc2[nH]ncc2c1=O as the molecule, how does the “hERG current change (%, negative = inhibition) at 1uM” value read?
The value was -11.4%.

Which “hERG current change (%, negative = inhibition) at 1uM” value does the source give for O=C(NCc1ccncc1)C1CCN(C(=O)c2cccc(Cl)c2)CC1 here?
Its value is 4.95%.

Which “hERG current change (%, negative = inhibition) at 1uM” value does the source give for Cc1cc(C)c(S(=O)(=O)c2ccccc2)c(=O)[nH]1 here?
Its value is 16.6%.

O/N=C/c1cccnc1Sc1ccccc1 was tested. Which “hERG current change (%, negative = inhibition) at 1uM” value did it give?
Its value is 6.86%.

How did the “hERG current change (%, negative = inhibition) at 1uM” value turn out when O=C(Nc1ccc(N2CCOCC2)cc1)c1cccc(S(=O)(=O)N2CCCC2)c1 was run?
Its value is 3.25%.

Cn1nc(C(C)(C)C)c([N+](=O)[O-])c1C(=O)N1CCCCCC1 was tested. Which “hERG current change (%, negative = inhibition) at 1uM” value did it give?
Its value is 15.5%.

CC(=O)c1ccc(OCc2ccccc2)c(C)c1O was tested. Which “hERG current change (%, negative = inhibition) at 1uM” value did it give?
The value was 11.1%.

How did the “hERG current change (%, negative = inhibition) at 1uM” value turn out when Cc1cccnc1Nc1nc(-c2ccc(O)c(O)c2)cs1 was run?
The value was 10.2%.

With COCCN(C(=O)C1CC(=O)N(Cc2ccc(C)cc2)C1)c1c(N)n(CC(C)C)c(=O)[nH]c1=O (stereo not shown) as the molecule, how does the “hERG current change (%, negative = inhibition) at 1uM” value read?
The value was 2.18%.

For CSCCC(NC(=O)c1cc([N+](=O)[O-])ccc1Cl)C(=O)O (stereo not shown), which “hERG current change (%, negative = inhibition) at 1uM” value is on record?
The value was 9.35%.

With CCOc1ccc(Nc2nc3c(c(=O)[nH]2)CCC3)cc1 as the molecule, how does the “hERG current change (%, negative = inhibition) at 1uM” value read?
The value was 6.36%.

Which “hERG current change (%, negative = inhibition) at 1uM” value does the source give for Cc1ccc(S(=O)(=O)NCc2nnc(SCC(=O)Nc3cccc(C)c3C)n2C)cc1 here?
The value was -0.801%.

Which “hERG current change (%, negative = inhibition) at 1uM” value does the source give for CCC(=O)N1CCc2cc(S(=O)(=O)CCC(=O)NCc3ccco3)ccc21 here?
The value was 10.2%.

Which “hERG current change (%, negative = inhibition) at 1uM” value does the source give for O=C(NCCC1=CCCCC1)C1CCN(S(=O)(=O)c2ccccc2C(F)(F)F)CC1 here?
The value was 11.9%.

How did the “hERG current change (%, negative = inhibition) at 1uM” value turn out when CN(CC(=O)N1CC=C(c2ccccc2)CC1)S(=O)(=O)c1cnc[nH]1 was run?
Its value is 4.99%.

Which “hERG current change (%, negative = inhibition) at 1uM” value does the source give for O=[N+]([O-])c1ccc(NCCCO)c(C(F)(F)F)c1 here?
Its value is 12.5%.

CSc1ncccc1C(=O)Nc1ccc(C)cn1 was tested. Which “hERG current change (%, negative = inhibition) at 1uM” value did it give?
The value was 9.49%.

With Cc1nc(-c2ccccc2)sc1C(N)=O as the molecule, how does the “hERG current change (%, negative = inhibition) at 1uM” value read?
The value was 14.6%.

With Cc1cc(NC(=O)CS(=O)(=O)Cc2ccccc2)no1 as the molecule, how does the “hERG current change (%, negative = inhibition) at 1uM” value read?
The value was 10.1%.

With O=CN1CCN(C(C(=O)NC2CCCCC2)c2cc3c(cc2[N+](=O)[O-])OCO3)CC1 (stereo not shown) as the molecule, how does the “hERG current change (%, negative = inhibition) at 1uM” value read?
Its value is 16.4%.

For CCCCCOC(=O)CSc1nnc(-c2cc(OC)c(OC)c(OC)c2)o1, which “hERG current change (%, negative = inhibition) at 1uM” value is on record?
Its value is 7.18%.

For COc1ccc(S(=O)(=O)N(C)CC(=O)Nc2ccccc2C(F)(F)F)cc1OC, which “hERG current change (%, negative = inhibition) at 1uM” value is on record?
The value was 9.7%.

O=C1CCCC/C1=C\Nc1ccc(C(=O)O)c(O)c1 was tested. Which “hERG current change (%, negative = inhibition) at 1uM” value did it give?
Its value is 11.5%.

CCOc1ccc(C(=S)N2CCCC2)cc1OCC was tested. Which “hERG current change (%, negative = inhibition) at 1uM” value did it give?
The value was 12.7%.

O=[N+]([O-])c1cc(/C=N/O)ccc1Oc1cccc(Cl)c1 was tested. Which “hERG current change (%, negative = inhibition) at 1uM” value did it give?
The value was 6.79%.

How did the “hERG current change (%, negative = inhibition) at 1uM” value turn out when CCN(CC(=O)Nc1c(F)cccc1F)C(=O)/C=C/c1ccc(C)o1 was run?
The value was 22.2%.

Cc1onc(-c2ccccc2)c1C(=O)NC(C)c1ccc2c(c1)OCO2 (stereo not shown) was tested. Which “hERG current change (%, negative = inhibition) at 1uM” value did it give?
The value was 8.07%.

Which “hERG current change (%, negative = inhibition) at 1uM” value does the source give for O=C(NCCc1ccc(F)cc1)Nc1ccccc1 here?
The value was 2.25%.

With O=C(c1ccc([N+](=O)[O-])o1)N1CCN(c2nc3ccc(F)cc3s2)CC1 as the molecule, how does the “hERG current change (%, negative = inhibition) at 1uM” value read?
The value was -9.65%.

How did the “hERG current change (%, negative = inhibition) at 1uM” value turn out when Cc1cc(-c2nnc(CCC(=O)N(C)Cc3cccc4ccccc34)o2)no1 was run?
The value was -6.91%.
